Source: article PMC12102207, “Interplay of kinetochores and catalysts drives rapid assembly of the mitotic checkpoint complex” (Nature Communications, 2025)

Target: T1, ^CFPBUBR1:BUB3 (human, UniProt O60566; O43684)
T1 construct: BUBR1, human; BUB3, human
Assay: FRET or BRET; MCC FRET sensor: ^CFPBUBR1 donor and O-MAD2^TAMRA acceptor (100 nM each) with CDC20 (500 nM or 100 nM) and catalysts MAD1:C-MAD2, BUB1:BUB3, MPS1; sensitized TAMRA emission over time; 50 mM Hepes pH 7.5, 150 mM NaCl, 5% glycerol, 10 mM ß-Mercaptoethanol
Conditions: both partners purified

T1 sequence (O60566 whole entry, chain 1 of 2): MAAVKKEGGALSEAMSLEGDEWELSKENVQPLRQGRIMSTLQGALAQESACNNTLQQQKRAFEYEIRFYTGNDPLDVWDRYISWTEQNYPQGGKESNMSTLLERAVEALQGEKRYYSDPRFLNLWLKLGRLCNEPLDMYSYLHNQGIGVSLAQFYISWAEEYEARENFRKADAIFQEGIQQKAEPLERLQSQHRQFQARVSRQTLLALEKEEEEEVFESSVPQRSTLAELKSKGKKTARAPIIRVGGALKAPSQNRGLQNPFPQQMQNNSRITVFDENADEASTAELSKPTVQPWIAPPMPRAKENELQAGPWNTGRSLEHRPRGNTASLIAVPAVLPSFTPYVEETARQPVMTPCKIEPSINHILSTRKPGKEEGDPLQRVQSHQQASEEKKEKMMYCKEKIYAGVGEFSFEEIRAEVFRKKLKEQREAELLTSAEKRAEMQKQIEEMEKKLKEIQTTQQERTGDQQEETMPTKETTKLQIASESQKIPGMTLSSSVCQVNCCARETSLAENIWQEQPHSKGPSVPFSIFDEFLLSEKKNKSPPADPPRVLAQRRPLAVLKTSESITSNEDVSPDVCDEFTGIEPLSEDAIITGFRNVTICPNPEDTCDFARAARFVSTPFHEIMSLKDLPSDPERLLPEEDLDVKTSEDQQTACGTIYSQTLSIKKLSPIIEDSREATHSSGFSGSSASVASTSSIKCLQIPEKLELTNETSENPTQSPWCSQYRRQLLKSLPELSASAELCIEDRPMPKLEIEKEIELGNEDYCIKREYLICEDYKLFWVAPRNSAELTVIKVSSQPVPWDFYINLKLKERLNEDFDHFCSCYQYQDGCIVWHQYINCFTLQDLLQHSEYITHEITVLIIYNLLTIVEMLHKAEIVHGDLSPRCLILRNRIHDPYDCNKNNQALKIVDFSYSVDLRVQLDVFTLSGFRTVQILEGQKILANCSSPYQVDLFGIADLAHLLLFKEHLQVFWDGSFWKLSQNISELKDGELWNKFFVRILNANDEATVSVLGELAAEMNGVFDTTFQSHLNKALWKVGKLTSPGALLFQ
T1 sequence (O43684 whole entry, chain 2 of 2, further chain): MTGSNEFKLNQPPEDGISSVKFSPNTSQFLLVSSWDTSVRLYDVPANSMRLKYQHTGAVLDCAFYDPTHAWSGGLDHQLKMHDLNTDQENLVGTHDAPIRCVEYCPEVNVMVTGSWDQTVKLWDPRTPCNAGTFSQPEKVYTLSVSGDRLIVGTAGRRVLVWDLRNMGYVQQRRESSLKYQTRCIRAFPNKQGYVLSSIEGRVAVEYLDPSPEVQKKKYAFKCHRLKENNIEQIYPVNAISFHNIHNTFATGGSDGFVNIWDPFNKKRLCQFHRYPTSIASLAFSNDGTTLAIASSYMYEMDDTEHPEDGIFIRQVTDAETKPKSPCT

B1: O-MAD2^TAMRA (natural protein)
chain: not shown
modifications: TAMRA (fluorescence acceptor; position not stated)
notes: MAD2, human, added in the open topology (O-MAD2)
binding result: binds
